Some test systems named below: G361; IPC-298; IST-MEL1; LB2518-MEL; LOXIMVI; MEL-HO; MZ2-MEL; MeWo; RPMI7951; RVH-421.
What all share (assay): cell count relative to DMSO control; melanoma cells; higher = more viable cells
Common to all, as to conditions: library dose: standard library concentration; 72 h

Structures are written as SMILES. The list shows a part of the results. Single values are uncertain, as repeats are few or missing.
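Also: cells treated in 1,536-well plates, then fixed and DAPI-stained, with nuclei counted from automated high-throughput microscope images.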

For the molecule `Cn1cnc2c(F)c(Nc3ccc(Br)cc3Cl)c(C(=O)NOCCO)cc21` [selumetinib] + CO[C@@H]1[C@H](N(C)C(=O)c2ccccc2)C[C@H]2O[C@]1(C)n1c3ccccc3c3c4c(c5c6ccccc6n2c5c31)C(=O)NC4 [Midostaurin] (first compound 0.075 µM, partner dose 0.4 µM), the cell count in the experiment with G361 came out at 39.5%; in the experiment with IPC-298, 60.3%; in the experiment with IST-MEL1, 61.5%; with LB2518-MEL it was 43.3%; with LOXIMVI it was 61.7%; in the experiment with MEL-HO it was 69%. In addition, the cell count with MZ2-MEL was determined as 36.9%; in the experiment with MeWo, 70.3%; in the experiment on RPMI7951, 44.8%; with RVH-421, 68.9%.
On to `COc1cc([C@@H]2c3cc4c(cc3[C@@H](O[C@@H]3O[C@@H]5CO[C@@H](C)O[C@H]5[C@H](O)[C@H]3O)[C@H]3COC(=O)[C@H]23)OCO4)cc(OC)c1O` [etoposide] + CCCCCCCCc1ccc(CCC(N)(CO)CO)cc1 [fingolimod] (first compound 0.1 µM, partner dose 10 µM), for which the cell count with G361 was 0.214%; with IPC-298 it was 25.2%; with IST-MEL1 it was 8.26%; with LB2518-MEL it was 0.644%; with LOXIMVI it was 7.84%; in the experiment on MEL-HO, 7.12%. Also, the cell count with MZ2-MEL was found to be 1.43%; with MeWo, 31.7%; with RPMI7951 it was 1.4%; with RVH-421, 4.52%.
On to `COc1cc([C@@H]2c3cc4c(cc3[C@@H](O[C@@H]3O[C@@H]5CO[C@@H](C)O[C@H]5[C@H](O)[C@H]3O)[C@H]3COC(=O)[C@H]23)OCO4)cc(OC)c1O` [etoposide] + Oc1nc(-c2ccc(C(F)(F)F)cc2)nc2c1CSCC2 [XAV939] (first compound 0.1 µM, partner dose 10 µM), for which the cell count turned out to be 78.7% with G361; 73.3% in the experiment with IPC-298; 100% in the experiment with IST-MEL1; 80.6% in the experiment with LB2518-MEL; 106% with LOXIMVI; 76.8% with MEL-HO. For the same molecule, the cell count in the experiment on MZ2-MEL stood at 74.5%; in the experiment on MeWo, 92.6%; in the experiment with RPMI7951 it was 75.3%; with RVH-421, 104%.
Take `Cn1cnc2c(F)c(Nc3ccc(Br)cc3Cl)c(C(=O)NOCCO)cc21` [selumetinib] + C[C@@H](Oc1cc(-c2cnn(C3CCNCC3)c2)cnc1N)c1c(Cl)ccc(F)c1Cl [Crizotinib] (first compound 0.075 µM, partner dose 1 µM): the cell count with G361 worked out at 64.7%; with IPC-298, 51%; with IST-MEL1 it was 89.3%; with LB2518-MEL it was 37.8%; with LOXIMVI, 154%; with MEL-HO it was 71.1%. For the same molecule, the cell count in the experiment with MZ2-MEL was determined as 46.5%; in the experiment on MeWo, 53.9%; in the experiment on RPMI7951 it was 63.5%; in the experiment with RVH-421, 65.1%.
In the case of `COc1cc([C@@H]2c3cc4c(cc3[C@@H](O[C@@H]3O[C@@H]5CO[C@@H](C)O[C@H]5[C@H](O)[C@H]3O)[C@H]3COC(=O)[C@H]23)OCO4)cc(OC)c1O` [etoposide] + Cn1c(=O)n(-c2ccc(C(C)(C)C#N)cc2)c2c3cc(-c4cnc5ccccc5c4)ccc3ncc21 [NVP-BEZ235] (first compound 0.1 µM, partner dose 0.02 µM), the cell count in the experiment on G361 turned out to be 60.3%; in the experiment with IPC-298, 63.9%; with IST-MEL1, 88.1%; in the experiment on LB2518-MEL, 73.1%; in the experiment on LOXIMVI, 54.2%; in the experiment on MEL-HO, 60.5%. Besides, the cell count in the experiment with MZ2-MEL is 62.5%; in the experiment with MeWo it was 63.7%; with RPMI7951, 61.6%; with RVH-421, 79.1%.
With `Cn1cnc2c(F)c(Nc3ccc(Br)cc3Cl)c(C(=O)NOCCO)cc21` [selumetinib] + Cc1ccc(NC(=O)c2cccc(N(C)C)c2)cc1NC(=O)c1ccc(O)cc1 [ZM336372] (first compound 0.075 µM, partner dose 10 µM), the cell count turned out to be 70.2% in the experiment on G361; 67.5% in the experiment with IPC-298; 79.9% with IST-MEL1; 63.4% with LB2518-MEL; 94.1% with LOXIMVI; 87.2% in the experiment with MEL-HO. The cell count in the experiment with MZ2-MEL stood at 117%; in the experiment with MeWo, 76.1%; with RPMI7951, 98.7%; in the experiment on RVH-421, 74.5%.
Regarding `CCN(CC)CCNC(=O)c1c(C)[nH]c(/C=C2\C(=O)Nc3ccc(F)cc32)c1C` [sunitinib] + Cc1ccc(NC(=O)c2cccc(N(C)C)c2)cc1NC(=O)c1ccc(O)cc1 [ZM336372] (first compound 2 µM, partner dose 10 µM), the cell count in the experiment on G361 was determined as 62%; in the experiment with IPC-298 it was 59.4%; in the experiment with IST-MEL1, 89.1%; with LB2518-MEL it was 37.8%; with LOXIMVI, 80.6%; with MEL-HO it was 88%. In addition, the cell count was 98.7% in the experiment on MZ2-MEL, 45.6% in the experiment with MeWo, 55.7% in the experiment with RPMI7951 and 97.1% in the experiment with RVH-421.
`C[C@]1(O)C[C@@H](c2nc(-c3ccc4ccc(-c5ccccc5)nc4c3)c3c(N)nccn32)C1` + N#Cc1c(O)c2c(-c3ccc(-c4ccccc4O)cc3)csc2[nH]c1=O [A769662] (first compound 2 µM, partner dose 10 µM): the cell count with G361 stood at 103%; in the experiment with IPC-298, 111%; in the experiment on IST-MEL1, 93.3%; in the experiment on LB2518-MEL it was 98.5%; in the experiment on LOXIMVI, 127%; in the experiment with MEL-HO it was 99.2%. In addition, the cell count with MZ2-MEL turned out to be 116%; in the experiment on MeWo it was 84.2%; with RPMI7951 it was 93.7%; in the experiment on RVH-421, 94.7%.
In the case of `COc1cc([C@@H]2c3cc4c(cc3[C@@H](O[C@@H]3O[C@@H]5CO[C@@H](C)O[C@H]5[C@H](O)[C@H]3O)[C@H]3COC(=O)[C@H]23)OCO4)cc(OC)c1O` [etoposide] + NC1(c2ccc(-c3nc4ccn5c(=O)[nH]nc5c4cc3-c3ccccc3)cc2)CCC1 [MK2206] (first compound 0.1 µM, partner dose 2 µM), the cell count in the experiment on G361 stood at 79.2%; in the experiment with IPC-298, 50.1%; with IST-MEL1 it was 80.8%; in the experiment on LB2518-MEL it was 61%; in the experiment on LOXIMVI it was 32.2%; with MEL-HO, 75%. The cell count with MZ2-MEL is 68.6%; in the experiment on MeWo, 62.5%; in the experiment with RPMI7951, 80.4%; in the experiment on RVH-421, 84.1%.
As for `C[C@]1(O)C[C@@H](c2nc(-c3ccc4ccc(-c5ccccc5)nc4c3)c3c(N)nccn32)C1` + CN(NC(=O)CC(=O)NN(C)C(=S)c1ccccc1)C(=S)c1ccccc1 [STA4783] (first compound 2 µM, partner dose 0.03 µM), the cell count with G361 came out at 28.5%; with IPC-298, 70.8%; in the experiment on IST-MEL1, 35%; with LB2518-MEL, 30.8%; in the experiment on LOXIMVI, 56.2%; with MEL-HO, 79.9%. Also, the cell count in the experiment on MZ2-MEL is 94%; in the experiment on MeWo, 20.8%; in the experiment with RPMI7951, 86.4%; with RVH-421, 57.3%.

These data come from the supplement of paper PMC4604168 (melanoma cell lines).
